Values joined by “and” are separate entries in the source; they are usually repeats but may differ in a detail not shown here. Equal entries are not always repeated. Whole data set: some 5,400 compounds, median “IFI” near 2, cut for the highest 2% near 22. The list shows a part of the results.
assay: NOVARTIS: Inhibition Frequency Index (IFI) - the number of HTS assays where a compound showed > 50% inhibition/induction, expressed as a percentage of the number of assays in which the compound was tested.; format: functional

Cc1c(NC(=S)N2CCOCC2)c(=O)n(-c2ccccc2)n1C and O=C(CSc1nc2ccccc2c(=O)n1-c1ccc(C(=O)N2CCOCC2)cc1)c1ccccc1 are the same in IFI: 0% for the first, 0% for the second.

Compared with Cn1nc(C(=O)NCc2ccccc2)c2c1CCN(Cc1cccc(O)c1)C2, CN1CCc2c(sc3nc(SCC(=O)NCCc4ccccc4)n(-c4ccc(Cl)cc4)c(=O)c23)C1 is higher in IFI: 1.22% for the first, 12.5% for the second.

First: CCCCCCC1CCC(O)(C(C)(O)C(=O)NC2C(=O)N3NCCCC3C(=O)N(O)C(COC)C(=O)NCC(=O)N3NCCCC3C(=O)N(O)C(C)C(=O)OC2C)OC1C (stereo not given)
Second: CS[C@H]1SC[C@H]2C(=O)N(C)[C@@H](C(C)C)C(=O)OC[C@@H](NC(=O)c3cnc4ccccc4n3)C(=O)N[C@@H](C)C(=O)N(C)[C@@H]1C(=O)N(C)[C@@H](C(C)C)C(=O)OC[C@@H](NC(=O)c1cnc3ccccc3n1)C(=O)N[C@@H](C)C(=O)N2C
The IFI of the first is higher: 39.3% for the first, 34.6% for the second.

Compared with Cc1nc(N2CCN(C)CC2)c2c(C)c(C(=O)NCCN(C)C)sc2n1, COc1cc2nc(CN(C)C(C)c3cccs3)nc(N3CCCC3)c2cc1OC (stereo not given) is lower in IFI: 1.12% for the first, 0% for the second.

Cc1cc(C)n(-c2ccc(NC(=O)C3CCN(Cc4ccncc4)CC3)cc2)n1 and Cc1ccc(-c2noc(C3CCN(C(=O)Nc4ccc(C#N)cc4)CC3)n2)o1 are the same in IFI: 0% for the first, 0% for the second.

Going from COc1ccc(CC(=O)N(CCCC(C)Nc2cc(OC)cc3cccnc23)Cc2ccc(OC)c(OC)c2)cc1 (stereo not given) to CCOc1ccc(-n2c(=S)sc3c(=O)n(-c4ccc(C)cc4)c(SCC(=O)Nc4cc(OC)ccc4OC)nc32)cc1, the IFI falls from 3.7% to 0%.

Compared with c1cncc(-c2cc(N3CCc4ccccc4C3)nc(-c3ccncc3)n2)c1, O=C(C1CCC1)N1CCOc2c(cc(-c3csc4ccccc34)cc2OCCc2ccccn2)C1 is higher in IFI: 0% for the first, 2% for the second.

Compared with CC(C)NC(=O)N1CCN(C(=O)COC(c2cccs2)c2cccnc2Cl)CC1 (stereo not given), O=C(Cc1cccs1)N1CCN(c2ccccn2)CC1 is higher in IFI: 1.94% for the first, 2.35% for the second.

COCCCNc1nc2cc(OC)c(OC)cc2c2nc(-c3ccccc3)nn12 and CCOCCCNc1nc2cc(OC)c(OC)cc2c2nc(-c3ccccc3)nn12 are the same in IFI: 0% for the first, 0% for the second.

Going from Cc1ccc2nc3c(c(Nc4ccc(N(C)C)cc4)c2c1)CCC3 to Cc1ccc(Nc2nc3nonc3nc2N(C)C)cc1Cl, the IFI falls from 1.06% to 0%.

CCOC(=O)c1cccc(NC(=O)CC2C(=O)N(c3ccc(F)cc3)C(=O)N2CCC(C)C)c1 (stereo not given) and CCOc1ccccc1-n1c(N)c(C(=O)Nc2ccc(F)cc2)sc1=S are the same in IFI: 0% for the first, 0% for the second.

Compared with COc1ccc2c(C)nc(Nc3nc(C)cc(-c4ccccc4)n3)nc2c1, CC[n+]1c(/C=C/c2ccc(OC)cc2)ccc2ccccc21 is higher in IFI: 0% for the first, 5.11% for the second.

Going from NCCCCCCNc1ccnc2cc(Cl)ccc12 to Fc1ccc(CNc2ccnc3cc(Cl)ccc23)cc1, the IFI rises from 1.91% to 6.33%.

Compared with CN(CCCNc1ccnc2cc(Cl)ccc12)S(=O)(=O)c1ccc([N+](=O)[O-])cc1, CN(CCCNc1ccnc2cc(Cl)ccc12)C(=O)c1ccc(C(F)(F)F)cc1 is lower in IFI: 5.5% for the first, 2.73% for the second.

First: CCCCCCN(C(=O)c1ccc2c(c1)OCO2)C(CC)c1nc2ccccc2c(=O)n1-c1ccccc1OC (stereo not given)
Second: CCCCCCN(C(=O)c1cccc(F)c1)C(CC)c1nc2ccccc2c(=O)n1-c1ccccc1OC (stereo not given)
The IFI of the first is lower: 0.971% for the first, 2.73% for the second.

First: c1ccc2cc3c(NCCN4CCOCC4)ccnc3cc2c1
Second: O=C1C(NC2CCCCC2)=C(N2CCOCC2)C(=O)c2ccccc21
The IFI of the first is lower: 0% for the first, 3.76% for the second.

First: CC1CC2(C)Oc3ccccc3CC2C(C)C1CNCCCN(C)C (stereo not given)
Second: COc1ccc(OC)c(CN2CCC3(CC2)CC3C(=O)NCCc2ccccc2OC)c1 (stereo not given)
The IFI of the first is higher: 9.23% for the first, 0% for the second.

Going from O=C(N1CCN(c2ccc(C(F)(F)F)cc2[N+](=O)[O-])CC1)C(Cl)(Cl)Cl to O=[N+]([O-])c1cc(C(F)(F)F)ccc1N1CCCN(C(=S)Nc2ccccc2)CC1, the IFI rises from 0% to 3.36%.

Compared with Oc1nc(-c2ccccn2)nc(C(F)(F)F)c1Br, Cc1cc(CNC(=O)CC2C(=O)NCCN2Cc2ccccc2C(F)(F)F)nn1C (stereo not given) is lower in IFI: 8.77% for the first, 0% for the second.

First: Cc1cc(N2CCN(C3CCCCC3)CC2)n2c(nc3ccccc32)c1C#N
Second: CC(C)NC(=O)c1ccc2c(c1)N=C(/C=C/c1ccccc1)N(CC1CCCCC1)C2
The IFI of the first is lower: 2.88% for the first, 6.17% for the second.

First: Cc1c(Cc2ccccc2)sc(N=Cc2ccc(Br)s2)c1C(N)=O
Second: O=Cc1c(OCc2ccc(Cl)cc2Cl)ccc2ccccc12
The IFI of the first is lower: 5.56% for the first, 5.63% for the second.

Compared with Cc1nn(C)cc1-c1nc2cnccn2c1NCC1CCCO1 (stereo not given), Cc1ccn2c(NC(C)(C)CC(C)(C)C)c(-c3ccccc3OC(=O)c3ccc4c(c3)OCO4)nc2c1 is higher in IFI: 0% for the first, 2.8% for the second.

Going from Clc1ccc(OCc2nc3ccccc3n2CCc2ccccc2)cc1 to Brc1ccc(-c2n(Cc3ccccc3)c3ccccc3[n+]2Cc2ccccc2)o1, the IFI rises from 6.25% to 15.4%.

Going from CCCCNC(=S)N(Cc1cccs1)Cc1cc2cc(C)ccc2[nH]c1=O to CCN(CC)CCCN(Cc1cc2cc(OC)ccc2[nH]c1=O)C(=S)Nc1cccc(Cl)c1, the IFI rises from 1.82% to 8.04%.

CCOC(=O)C1(CC2CCCCO2)CCN(C(=O)Nc2cccc(SC)c2)CC1 (stereo not given) and CCCNC(=O)N1CCC2(CC1)CC(=O)c1cc(C)ccc1O2 are the same in IFI: 0% for the first, 0% for the second.

First: O=S(=O)(NC1CCCC1)c1cccc2nonc12
Second: CCOCCCNC(=O)C1CCCN(S(=O)(=O)c2ccc(C)cc2)C1 (stereo not given)
The IFI of the first is lower: 0% for the first, 6.76% for the second.

Going from CC[n+]1c(/C=C/C=C2\N(C)c3ccccc3C2(C)C)n(CCCOC(C)=O)c2ccccc21 to COc1ccccc1CNC(=O)CCn1c(=O)[nH]c2ccccc2c1=O, the IFI falls from 14.3% to 1.67%.

Compared with O=C(Nc1cc(C(F)(F)F)cc(C(F)(F)F)c1)Nc1ccc2nnsc2c1, O=C(Nc1cc(C(F)(F)F)cc(C(F)(F)F)c1)Nc1ccc(Cl)c(Cl)c1 is higher in IFI: 12.8% for the first, 18.8% for the second.

First: CC(C)(C)CC(C)(C)Nc1c(-c2ccccc2OC(=O)c2ccco2)nc2ccccn12
Second: CN(C)c1ccc(/C=C/C(=O)NC(=O)c2ccccc2OC(=O)c2ccccc2)cc1
The IFI of the first is lower: 4.76% for the first, 8.33% for the second.

Compared with CCOc1cc2c(cc1OCC)C(c1cc(OC)c(O)cc1Cl)NCC2 (stereo not given), COc1cc(CNc2ccc(N3CCCCC3)cc2)cc(Cl)c1OCc1ccc(F)cc1 is higher in IFI: 0% for the first, 5.56% for the second.

Compared with CCOc1ccc(-c2cn3c([n+]2Cc2ccccc2)SCCC3)cc1, CCOc1ccc(N2C(=O)c3ccccc3NC2(C)C)cc1 is lower in IFI: 15.4% for the first, 4.62% for the second.

First: Cc1cc(C)c(NC(=S)N(CCCN2CCCCC2)Cc2cccs2)c(C)c1
Second: CCN(CC)CCCN(Cc1cc2cc3c(cc2[nH]c1=O)OCCO3)C(=S)Nc1cccc(Cl)c1
The IFI of the first is lower: 0% for the first, 6.9% for the second.

Going from COC(=O)c1ccc2c(=O)n(Cc3ccco3)c(SCC(=O)n3nc(N)cc3C)nc2c1 to COc1ccccc1Cn1c(SCC(=O)Nc2cccc(C(F)(F)F)c2)nc2ccc(Br)cc2c1=O, the IFI rises from 0% to 4.35%.

Compared with CCCCCCN(C(=O)Nc1ccccc1OC)C(C)c1nc2ccccc2c(=O)n1-c1ccccc1OCC (stereo not given), COc1cc2c(c(OC)c1CN1CCN(c3ccccc3)CC1)C(=O)c1ccccc1C2=O is higher in IFI: 2.78% for the first, 15.4% for the second.

Going from Cc1ccc(COc2ccc3c(C#N)c4ccccn4c3c2)cc1 to COc1cccc2c1OCC(C(=O)Nc1ccc(C)cc1)=C2, the IFI rises from 7.29% to 11.4%.

First: CC(=O)N1c2ccc([N+](=O)[O-])cc2C(C)(c2ccccc2)CC1(C)C (stereo not given)
Second: COc1cc(C2C(C(=O)OCC(C)C)=C(C)NC3=C2C(=O)CC(c2ccccc2)C3)cc(Br)c1O (stereo not given)
The IFI of the first is lower: 0% for the first, 4.65% for the second.

Compared with CCCC(C(=O)NCCC(C)C)N(C(=O)c1snc(C(N)=O)c1N)c1ccc(C(C)C)cc1 (stereo not given), CCc1ccc(C(=O)N(CC(=O)Nc2cc(C(C)(C)C)nn2-c2ccc(Cl)c(Cl)c2)C(C)C)cc1 is lower in IFI: 4.84% for the first, 2.1% for the second.

Going from O=C(COc1ccccc1Cl)OCc1cc(=O)n2nc(C3CC3)sc2n1 to COc1ccc(C2CC(=O)C3=C(C2)NC(C)=C(C(=O)OC2CCCC2)C3c2ccccc2F)cc1OC (stereo not given), the IFI rises from 0% to 5.88%.

Going from c1ccc(Cc2nc(NCc3ccc4c(c3)OCO4)c3c4c(sc3n2)CCCC4)cc1 to O=C1CCC(=O)N1c1ccc(CSc2nc3ccccc3[nH]2)cc1, the IFI falls from 1.16% to 0%.

Cc1cccc(NC(=O)C2C3C=CC4(O3)C2C(=O)N(CC2COc3ccccc3O2)C4C(=O)NC2CCCC(C)C2C)c1 (stereo not given) and Cc1ccc(CN2CCN(Cc3cn(C(C)C)c4ccccc34)CC2CCO)o1 (stereo not given) are the same in IFI: 0% for the first, 0% for the second.

Compared with CCn1c(SCC(=O)Nc2ccc(OC)cc2)nc2ccsc2c1=O, COc1ccc(Cn2c(=S)[nH]c3ccsc3c2=O)cc1 is higher in IFI: 0% for the first, 2.3% for the second.

First: O=C(O)c1c(F)cccc1Cl
Second: Cc1cc(C)nc(NC(=N)Nc2cccc(O)c2)n1
The IFI of the first is lower: 0% for the first, 1.05% for the second.

Going from Clc1ccc(-c2c[n+](Cc3ccc(Cl)c(Cl)c3)c3n2CCC3)cc1 to COc1ccc(CC(=O)Nc2ccc(S(=O)(=O)N3CCCCCC3)cc2)cc1, the IFI falls from 2.38% to 0%.

CCCN(CCC)CCCNc1ccc(C(=O)Nc2ccc(C)c(F)c2)cc1[N+](=O)[O-] and Cc1cc(Nc2ccc(C)c(Cl)c2)n2ncnc2n1 are the same in IFI: 0% for the first, 0% for the second.

Compared with NC(=O)NN=C1c2cc(S(=O)(=O)NCc3ccco3)ccc2-c2ccc(S(=O)(=O)NCc3ccco3)cc21, CC(C)(C)c1ccc(C2CC3=Nc4ccccc4N(C(=O)c4ccccc4Cl)C(c4ccc(F)cc4)C3=C(O)C2)cc1 (stereo not given) is higher in IFI: 0% for the first, 7.14% for the second.

Compared with COc1cc(OC)cc(N2CCN(CCNCCOc3ccccc3)[C@@H](c3ccccc3)C2)c1, C=CCN1C=CC(=Cc2sc3ccccc3[n+]2C)c2ccccc21 is higher in IFI: 4.94% for the first, 17.6% for the second.

Going from c1cc2cc(CN3CCc4nc(N5CCCCC5)sc4C3)ccc2[nH]1 to Cn1c(=O)c2c(nc(N3CCN(C(=O)Nc4ccc(F)cc4F)CC3)n2C)n(C)c1=O, the IFI falls from 4.17% to 0%.

With COC(=O)c1ccc(C2C3=C(O)CC(c4ccc(C)cc4)CC3=Nc3ccccc3N2C(=O)c2cccs2)cc1 (stereo not given) the IFI was 4.88% and 0%.

Source: ChEMBL document CHEMBL1156829
